The supplement of paper PMC4967469
Lines with a small IC50 respond at low doses; a limit (>, <) means that the fit lies beyond the doses tested. For AUC the same curve is integrated over the 256-fold range of doses and scaled to a fraction: 1 means no effect, lower means more sensitive. For part of these data: An inferred top dose was calculated from the reported fits. For part of these data: Where an entry number is given, a second screen of the drug exists; the two often differ.

How the values were obtained:
Experiment in all cases: Viability of human cancer cell lines after 72 h of drug (GDSC screen)
JNJ-26854165 = compound: c1ccc2c(CCNc3ccc(Nc4ccncc4)cc3)c[nH]c2c1 [JNJ-26854165]; conditions: top dose 10 µM
Experimental: (§1)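 Human cancer cell lines in 384-well plates, medium with 10% serum, drug for 72 h over a 256-fold dose range (nine 2-fold or five 4-fold steps up to the top dose). Adherent lines were fixed and stained with the nucleic acid dye Syto60, suspension lines read with resazurin; signal relative to control wells, capped at 0 and 100%. One two-parameter sigmoid per drug and line, fitted in a mixed model over all curves with the slope shared within a line.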

JQ1 = compound: Cc1sc2c(c1C)C(c1ccc(Cl)cc1)=N[C@@H](CC(=O)OC(C)(C)C)c1nnc(C)n1-2 [JQ1]
Experimental: as §1

OSI-906 = compound: C[C@]1(O)C[C@@H](c2nc(-c3ccc4ccc(-c5ccccc5)nc4c3)c3c(N)nccn32)C1 [OSI-906]; conditions: top dose 2.56 µM; top dose inferred
Experimental: as §1

AMG-706 = compound: CC1(C)CNc2cc(NC(=O)c3cccnc3NCc3ccncc3)ccc21 [AMG-706]; conditions: top dose 2 µM; top dose inferred
Experimental: as §1

YM155 = compound: COCC[n+]1c2c(n(Cc3cnccn3)c1C)C(=O)c1ccccc1C2=O [YM155]; conditions: top dose 5.12 µM
Experimental: as §1

NVP-TAE684 = compound: COc1cc(N2CCC(N3CCN(C)CC3)CC2)ccc1Nc1ncc(Cl)c(Nc2ccccc2S(=O)(=O)C(C)C)n1 [NVP-TAE684]; conditions: top dose 2 µM
Experimental: as §1

SB-715992 = compound: Cc1ccc(C(=O)N(CCCN)[C@@H](c2nc3cc(Cl)ccc3c(=O)n2Cc2ccccc2)C(C)C)cc1 [SB-715992]; conditions: top dose 0.128 µM; top dose inferred
Experimental: as §1

FTI-277 = compound: COC(=O)[C@H](CCSC)NC(=O)c1ccc(NC[C@@H](N)CS)cc1-c1ccccc1 [FTI-277]; conditions: top dose 1.024 µM; top dose inferred
Experimental: as §1

JNK Inhibitor VIII = compound: CCOc1nc(NC(=O)Cc2cc(OC)ccc2OC)cc(N)c1C#N [JNK Inhibitor VIII]; conditions: top dose 10 µM; top dose inferred
Experimental: as §1

NSC-207895 = compound: CN1CCN(c2ccc([N+](=O)[O-])c3no[n+]([O-])c23)CC1 [NSC-207895]; conditions: top dose 20 µM; top dose inferred
Experimental: as §1

Docetaxel = compound: CC(=O)O[C@@]12CO[C@@H]1C[C@H](O)[C@@]1(C)C(=O)[C@H](O)C3=C(C)[C@@H](OC(=O)[C@H](O)[C@@H](NC(=O)OC(C)(C)C)c4ccccc4)C[C@@](O)([C@@H](OC(=O)c4ccccc4)[C@H]21)C3(C)C [Docetaxel]; conditions: top dose 0.0125 µM
Experimental: as §1

CGP-60474 = compound: OCCCNc1cc(-c2ccnc(Nc3cccc(Cl)c3)n2)ccn1 [CGP-60474]; conditions: top dose 0.256 µM; top dose inferred
Experimental: as §1

Belinostat = compound: O=C(/C=C/c1cccc(S(=O)(=O)Nc2ccccc2)c1)NO [Belinostat]; conditions: top dose 20 µM; top dose inferred
Experimental: as §1

Cyclopamine = compound: CC1=C2C[C@H]3[C@@H](CC=C4C[C@@H](O)CC[C@@]43C)[C@@H]2CC[C@]12O[C@@H]1C[C@H](C)CN[C@H]1[C@H]2C [Cyclopamine]; conditions: top dose 16 µM; top dose inferred
Experimental: as §1

[1] = top dose 1 µM, screen: GDSC drug entry 1218, top dose inferred
[2] = top dose 2.56 µM, screen: GDSC drug entry 163

Cell Line	AUC (JNJ-26854165)	IC50 (JNJ-26854165)	AUC (JQ1; [1])	IC50 (JQ1; [1])	AUC (JQ1; [2])	IC50 (JQ1; [2])	AUC (OSI-906)	IC50 (OSI-906)	AUC (AMG-706)	IC50 (AMG-706)	AUC (YM155)	IC50 (YM155)	AUC (NVP-TAE684)	IC50 (NVP-TAE684)	AUC (SB-715992)	IC50 (SB-715992)	AUC (FTI-277)	IC50 (FTI-277)	AUC (JNK Inhibitor VIII)	IC50 (JNK Inhibitor VIII)	AUC (NSC-207895)	IC50 (NSC-207895)	AUC (Docetaxel)	IC50 (Docetaxel)	AUC (CGP-60474)	IC50 (CGP-60474)	AUC (Belinostat)	IC50 (Belinostat)	AUC (Cyclopamine)	IC50 (Cyclopamine)
TE-12 (oesophagus, suspension)	0.906	> 10000 nM	0.98	> 1000 nM	0.857	> 2560 nM	0.684	590 nM	0.975	> 2000 nM	0.429	196 nM	0.7	522 nM	0.945	> 128 nM	0.972	> 1020 nM	0.97	> 10000 nM	0.957	> 20000 nM	0.916	> 12.5 nM	0.668	52.2 nM	0.979	> 20000 nM	0.963	> 16000 nM
MOLP-8 (myeloma, suspension)	0.939	> 10000 nM	0.703	227 nM	0.436	108 nM	0.551	219 nM	0.986	> 2000 nM	0.024	< 20 nM	0.678	385 nM	0.333	2.79 nM	0.968	> 1020 nM	0.986	> 10000 nM	0.837	12700 nM	0.943	> 12.5 nM	0.429	10.3 nM	0.122	82.7 nM	0.987	> 16000 nM
NCI-H209 (small cell lung carcinoma, suspension)	0.829	6810 nM	0.909	> 1000 nM	0.897	> 2560 nM	0.965	> 2560 nM	0.982	> 2000 nM	0.981	> 5120 nM	0.95	> 2000 nM	0.883	> 128 nM	0.986	> 1020 nM	0.977	> 10000 nM	0.98	> 20000 nM	0.862	11.9 nM	0.817	156 nM	0.983	> 20000 nM	0.982	> 16000 nM
CW-2 (large intestine, adherent)	0.849	8420 nM	0.988	> 1000 nM	0.989	> 2560 nM	0.989	> 2560 nM	0.989	> 2000 nM	0.908	> 5120 nM	0.98	> 2000 nM	0.987	> 128 nM	0.989	> 1020 nM	0.988	> 10000 nM	0.962	> 20000 nM	0.956	> 12.5 nM	0.976	> 256 nM	0.47	1030 nM	0.987	> 16000 nM
